This is an account of results in PMC1479839 (2006).

In this test the target is T1, extracellular domain of the IL-13 receptor α1-chain (UniProt P78552 22-343).
T1 chain: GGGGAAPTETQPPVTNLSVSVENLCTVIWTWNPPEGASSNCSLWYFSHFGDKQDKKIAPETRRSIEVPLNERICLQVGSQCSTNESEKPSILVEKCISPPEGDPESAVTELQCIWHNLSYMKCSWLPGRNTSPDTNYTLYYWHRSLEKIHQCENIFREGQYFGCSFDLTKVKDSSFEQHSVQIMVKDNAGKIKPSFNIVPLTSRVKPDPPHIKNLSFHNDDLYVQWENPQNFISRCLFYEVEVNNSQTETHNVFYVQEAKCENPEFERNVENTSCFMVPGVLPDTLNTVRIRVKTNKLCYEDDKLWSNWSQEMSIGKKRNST
As to the kind of experiment: SPR. Background: Surface plasmon resonance follows binding to a sensor surface in real time, without labels.

B1: human interleukin 13 (wild type) (ligand)
chain: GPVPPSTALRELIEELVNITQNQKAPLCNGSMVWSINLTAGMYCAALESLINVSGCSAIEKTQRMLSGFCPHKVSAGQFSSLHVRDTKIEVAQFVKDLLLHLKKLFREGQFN
Take B1: the Kd is 30 nM.

What is called Kd is the concentration at which binding is half-saturated.
